Reference: patent publication US9108930B2, “N1- and N2-carbamoyl-1,2,3-triazole serine hydrolase inhibitors and methods” (The Scripps Research Institute, priority 2011, dated 2015)

Test system: BW5147-derived murine T-cell hybridoma cells
Test: Cell proliferation assay (WST-1)
Assay type: cell-based, mouse
Conditions: 1 nM, 12 h
Method: Cells were incubated for 10 h (37° C., 5% CO2) and then treated with inhibitor AA74-1 (1 nM final concentration) and incubated for further 12 h. About 10 μL of WST-1 reagent were added to each well and plates were incubated for 2 h in the dark at 37° C. Relative absorbance was measured with a plate reader at 440 nm. Data represent the average±s.d. for four experiments.

Row | SMILES | effect on cellular proliferation
1 | COCC1CCCCN1C(=O)n1ncc(C(O)(c2ccccc2)c2ccccc2)n1 (centres unmarked) [AA44-2] | not observed
2 | CC(C)CC(O)(CC(C)C)c1cnn(C(=O)N2CCCC2)n1 [AA74-1] | significant increase in cellular proliferation
